From the supplement of paper PMC8948288
The sequences are guide strands of siRNAs; only the seed at positions 2 to 7 varies.

How the values were obtained:
GL261 = assay: cell viability relative to siNT1 (ATP content); H4 human neuroglioma and GL261 mouse glioma; higher = less toxic; settings: siRNA concentration 25 nM; 96 h; mouse
Method: (§1)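 Arrayed screen of all 4096 6mer seeds. Each seed sits at guide-strand positions 2-7 of a neutral 19mer siRNA backbone (siNT1-based, passenger strand 2'-O-methyl modified at positions 1-2 to block RISC loading, 3' DNA overhangs). The guide strand is built here as U + seed + ACAUGUAAACCA. Cells were reverse transfected in triplicate in 384-well plates (H4 at 10 nM, GL261 at 25 nM) with Lipofectamine RNAiMAX. Viability was read as ATP content (CellTiter-Glo) 96 h after transfection and normalised to siNT1 (%).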

H4 = assay: as above; settings: siRNA concentration 10 nM; 96 h; human
Method: as §1
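Also: cells reverse transfected with siRNA duplexes via lipid reagent, ATP read by luminescence, triplicate wells, values scaled to mean viability with non-targeting control siNT1.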

| Sequence | cell viability (GL261) [%] | cell viability (H4) [%] |
| --- | --- | --- |
| UAGGCAUACAUGUAAACCA | 24 | 57.2 |
| UAGGCCAACAUGUAAACCA | 31.3 | 50.1 |
| UAGGCCCACAUGUAAACCA | 22.6 | 51 |
| UAGGCCGACAUGUAAACCA | 54.3 | 82.9 |
| UAGGCCUACAUGUAAACCA | 37.5 | 36.5 |
| UAGGCGAACAUGUAAACCA | 54.4 | 90.5 |
| UAGGCGCACAUGUAAACCA | 20 | 37.4 |
| UAGGCGGACAUGUAAACCA | 28.5 | 58.8 |
| UAGGCGUACAUGUAAACCA | 37 | 69.8 |
| UAGGCUAACAUGUAAACCA | 52.9 | 95.6 |
| UAGGCUCACAUGUAAACCA | 16.3 | 46.5 |
| UAGGCUGACAUGUAAACCA | 38.4 | 75.7 |
| UAGGCUUACAUGUAAACCA | 39.5 | 64.4 |
| UAGGGAAACAUGUAAACCA | 61.5 | 88.7 |
| UAGGGACACAUGUAAACCA | 30.8 | 29.9 |
| UAGGGAGACAUGUAAACCA | 50.1 | 73.3 |
| UAGGGAUACAUGUAAACCA | 46.4 | 45.1 |
| UAGGGCAACAUGUAAACCA | 38.7 | 73.5 |
| UAGGGCCACAUGUAAACCA | 15.1 | 18.5 |
| UAGGGCGACAUGUAAACCA | 30.2 | 73.9 |
| UAGGGCUACAUGUAAACCA | 17.4 | 29.1 |
| UAGGGGAACAUGUAAACCA | 41.7 | 68.4 |
| UAGGGGCACAUGUAAACCA | 16.2 | 13.8 |

| Sequence | cell viability (GL261) [%] | cell viability (H4) [%] |
| --- | --- | --- |
| UAGGGGGACAUGUAAACCA | 42.9 | 44.4 |
| UAGGGGUACAUGUAAACCA | 10.7 | 21 |
| UAGGGUAACAUGUAAACCA | 54.9 | 115 |
| UAGGGUCACAUGUAAACCA | 10.5 | 20.2 |
| UAGGGUGACAUGUAAACCA | 44.1 | 102 |
| UAGGGUUACAUGUAAACCA | 37.6 | 102 |
| UAGGUAAACAUGUAAACCA | 57.3 | 83.1 |
| UAGGUACACAUGUAAACCA | 33.3 | 50.7 |
| UAGGUAGACAUGUAAACCA | 55.5 | 86.3 |
| UAGGUAUACAUGUAAACCA | 32.5 | 53.6 |
| UAGGUCAACAUGUAAACCA | 33.7 | 97.5 |
| UAGGUCCACAUGUAAACCA | 13.3 | 38.5 |
| UAGGUCGACAUGUAAACCA | 46.6 | 70.8 |
| UAGGUCUACAUGUAAACCA | 23.6 | 10.2 |
| UAGGUGAACAUGUAAACCA | 64.2 | 74.5 |
| UAGGUGCACAUGUAAACCA | 29.4 | 41.9 |
| UAGGUGGACAUGUAAACCA | 10.8 | 56.5 |
| UAGGUGUACAUGUAAACCA | 35.1 | 69.8 |
| UAGGUUAACAUGUAAACCA | 59.3 | 87.9 |
| UAGGUUCACAUGUAAACCA | 34.7 | 73.1 |
| UAGGUUGACAUGUAAACCA | 81.6 | 73.8 |
| UAGGUUUACAUGUAAACCA | 65 | 85.2 |
| UAGUAAAACAUGUAAACCA | 55 | 96.8 |

| Sequence | cell viability (GL261) [%] | cell viability (H4) [%] |
| --- | --- | --- |
| UAGUAACACAUGUAAACCA | 17.4 | 58.2 |
| UAGUAAGACAUGUAAACCA | 20.6 | 106 |
| UAGUAAUACAUGUAAACCA | 27 | 97.4 |
| UAGUACAACAUGUAAACCA | 28.1 | 97 |
| UAGUACCACAUGUAAACCA | 6.78 | 47.2 |
| UAGUACGACAUGUAAACCA | 50.7 | 85.5 |
| UAGUACUACAUGUAAACCA | 20 | 51.9 |
| UAGUAGAACAUGUAAACCA | 72.9 | 85.2 |
| UAGUAGCACAUGUAAACCA | 11.1 | 22.5 |
| UAGUAGGACAUGUAAACCA | 32.7 | 67.1 |
| UAGUAGUACAUGUAAACCA | 18.8 | 36.2 |
| UAGUAUAACAUGUAAACCA | 60.6 | 90.2 |
| UAGUAUCACAUGUAAACCA | 52.1 | 53 |
| UAGUAUGACAUGUAAACCA | 59.6 | 86 |
| UAGUAUUACAUGUAAACCA | 62.6 | 81.8 |
| UAGUCAAACAUGUAAACCA | 55.3 | 87.2 |
| UAGUCACACAUGUAAACCA | 32.9 | 57.9 |
| UAGUCAGACAUGUAAACCA | 42.9 | 81.3 |
| UAGUCAUACAUGUAAACCA | 31.5 | 69.6 |
| UAGUCCAACAUGUAAACCA | 17.5 | 84.9 |
| UAGUCCCACAUGUAAACCA | 7.06 | 50.5 |
| UAGUCCGACAUGUAAACCA | 29.7 | 67.1 |
| UAGUCCUACAUGUAAACCA | 23.5 | 45.1 |

| Sequence | cell viability (GL261) [%] | cell viability (H4) [%] |
| --- | --- | --- |
| UAGUCGAACAUGUAAACCA | 44.9 | 120 |
| UAGUCGCACAUGUAAACCA | 24.2 | 56.6 |
| UAGUCGGACAUGUAAACCA | 42.4 | 82.3 |
| UAGUCGUACAUGUAAACCA | 49.2 | 85.1 |
| UAGUCUAACAUGUAAACCA | 53.5 | 108 |
| UAGUCUCACAUGUAAACCA | 18.1 | 36.5 |
| UAGUCUGACAUGUAAACCA | 34.5 | 90.3 |
| UAGUCUUACAUGUAAACCA | 36.7 | 78.5 |
| UAGUGAAACAUGUAAACCA | 75.6 | 92.8 |
| UAGUGACACAUGUAAACCA | 55.1 | 41 |
| UAGUGAGACAUGUAAACCA | 37.6 | 58 |
| UAGUGAUACAUGUAAACCA | 43.1 | 63.1 |
| UAGUGCAACAUGUAAACCA | 41.8 | 93.3 |
| UAGUGCCACAUGUAAACCA | 27.3 | 63.9 |
| UAGUGCGACAUGUAAACCA | 50.2 | 83.7 |
| UAGUGCUACAUGUAAACCA | 54.5 | 84.7 |
| UAGUGGAACAUGUAAACCA | 35.3 | 51.9 |
| UAGUGGCACAUGUAAACCA | 14.5 | 34 |
| UAGUGGGACAUGUAAACCA | 14.1 | 56.8 |
| UAGUGGUACAUGUAAACCA | 25.5 | 44.6 |
| UAGUGUAACAUGUAAACCA | 70.6 | 96.2 |
| UAGUGUCACAUGUAAACCA | 12.3 | 38.2 |
| UAGUGUGACAUGUAAACCA | 25 | 61.3 |

| Sequence | cell viability (GL261) [%] | cell viability (H4) [%] |
| --- | --- | --- |
| UAGUGUUACAUGUAAACCA | 38.9 | 67.7 |
| UAGUUAAACAUGUAAACCA | 62.1 | 103 |
| UAGUUACACAUGUAAACCA | 34.6 | 24.9 |
| UAGUUAGACAUGUAAACCA | 40.2 | 87.4 |
| UAGUUAUACAUGUAAACCA | 54.9 | 78.3 |
| UAGUUCAACAUGUAAACCA | 34.4 | 78.5 |
| UAGUUCCACAUGUAAACCA | 8.78 | 17 |
| UAGUUCGACAUGUAAACCA | 40.1 | 77.9 |
| UAGUUCUACAUGUAAACCA | 18.6 | 67.7 |
| UAGUUGAACAUGUAAACCA | 58.6 | 69.9 |
| UAGUUGCACAUGUAAACCA | 19.7 | 16.6 |
| UAGUUGGACAUGUAAACCA | 35.8 | 39.1 |
| UAGUUGUACAUGUAAACCA | 18.2 | 37 |
| UAGUUUAACAUGUAAACCA | 71.3 | 116 |
| UAGUUUCACAUGUAAACCA | 54.7 | 89.7 |
| UAGUUUGACAUGUAAACCA | 42.2 | 83.8 |
| UAGUUUUACAUGUAAACCA | 65.1 | 118 |
| UAUAAAAACAUGUAAACCA | 67.7 | 81.8 |
| UAUAAACACAUGUAAACCA | 39.5 | 93 |
| UAUAAAGACAUGUAAACCA | 49.9 | 90.1 |
| UAUAAAUACAUGUAAACCA | 58.7 | 101 |
